Reference: patent US10730895B2, “Carbidopa prodrug” (AbbVie Inc., priority 2014, dated 2020)
Read-outs that look alike come from different tables or passages of the source.

Key:
[1] = In vitro bioconversion study, skin homogenates (mini-pig); format: in vitro ADME; conditions: for L-Dopa or Carbidopa Formation: mini-pig skin homogenate; for half-life at 2.5 ug/mL: minipig, mini-pig skin homogenate 3 mg/mL, 37° C.
[2] = In vitro bioconversion study, skin homogenates (rat); format: in vitro ADME; conditions: for L-Dopa or Carbidopa Formation: rat skin homogenate; for half-life at 2.5 ug/mL: rat skin homogenate 3 mg/mL, 37° C.
[3] = In vitro bioconversion study, human liver microsomes; format: in vitro ADME; conditions: human liver microsomes 1 mg/mL
[4] = In vitro bioconversion study, blood (human); format: in vitro ADME; conditions: for half-life at 2.5 ug/mL: prodrug 2.5 ug/mL, 37° C.
[5] = In vitro bioconversion study, skin homogenates (human); format: in vitro ADME; conditions: for L-Dopa or Carbidopa Formation: human skin homogenate; for half-life at 2.5 ug/mL: human skin homogenate 3 mg/mL, 37° C.
[6] = Solubility study in water by visual assessment; format: physicochemical; conditions: for solubility: water
Method: The L-dopa phosphate prodrugs and the carbidopa phosphate prodrugs were evaluated in a solubility study. The solubility values of the phosphate prodrugs in water under ambient conditions were determined by visual assessment. Table 13-A reports the results of the study, including the measured values for L-dopa and carbidopa.

[7] = In vitro bioconversion study, blood (mini-pig); format: in vitro ADME; conditions: for half-life at 2.5 ug/mL: minipig, prodrug 2.5 ug/mL, 37° C.
[8] = Pharmacokinetic study in rats, individual prodrug IV or SC; format: in vivo, Sprague-Dawley rats; conditions: rat; for Estimated Conversion % (Based on L-dopa AUC): dose 7.05 mg/kg; for AUC: male, Sprague-Dawley, plasma, dose 5 mg/kg, L-dopa and carbidopa in aqueous solution, read-out: L-dopa AUCO-8 h
Method: For comparison, a rat pharmacokinetics study with L-dopa and carbidopa was conducted to help assess the in vivo conversion of the prodrugs. The study design and measured exposures of L-dopa and carbidopa are summarized in Tables 16-A and 16-B, respectively. In brief, groups of three male Sprague-Dawley rats were given (1) L-dopa and carbidopa in aqueous solution, or (2) the individual prodrug in aqueuous solution intravenously or subcutaneously. Blood samples were collected at multiple time points over 24 hours into a collection tube containing NaAsO4, EDTA, and ascorbic acid. […] The supernatants were subjected to LC-MS analysis for quantitation of prodrug, L-dopa or carbidopa.

[9] = 1-day stability study of individual prodrugs in aqueous solution; format: physicochemical; conditions: aqueous solution 80 μg/mL, ambient storage, pH 7.0
Method: The L-dopa phosphate prodrugs and the carbidopa phosphate prodrugs were evaluated in a stability study.

[10] = In vitro bioconversion study, blood (rat); format: in vitro ADME; conditions: for half-life at 2.5 ug/mL: prodrug 2.5 ug/mL, 37° C.
[11] = In vitro bioconversion study, liver S9 fraction (rat); format: in vitro ADME; conditions: rat liver S9 fraction 1 mg/mL
[12] = In vitro bioconversion study, kidney S9 fraction (human); format: in vitro ADME; conditions: human kidney S9 fraction 1 mg/mL
[13] = Human prediction of steady state exposures and phosphorus daily load
[14] = In vitro bioconversion study, liver S9 fraction (human); format: in vitro ADME; conditions: human liver S9 fraction 1 mg/mL
[15] = In vitro bioconversion study, intestinal S9 fractions (rat); format: in vitro ADME
[16] = In vitro bioconversion study, intestinal S9 fractions (human); format: in vitro ADME
[17] = mini-pig, 15:1 combination 48/3.2 mg/kg
[18] = 7-day stability study, 4′-monophosphate combination solution; format: physicochemical; conditions: combined solution L-dopa 4′-monophosphate 200 mg/mL + carbidopa 4′-monophosphate 50 mg/mL, pH 7.4, room temperature
Method: In addition, a solution combining the L-dopa 4′-monophosphate at 200 mg/mL and carbidopa 4′-monophosphate at 50 mg/mL was monitored over 7 days at room temperature. These samples were prepared with and without purging with nitrogen to remove oxygen.

[19] = format: in vivo, rats; conditions: rat, 4:1 combination, SC bolus 60/14 mg/kg then SC infusion 300/71 mg/kg
Method: After 1.5 hours, the combination was dosed again via continuous infusion at a dose of 300/71 mg/kg over next 14.5 hours. Blood samples were collected at 0, 0.25, 1, 6, 16, and 24 hours post dose. […] FIG. 7 provides a time-concentration profile for L-dopa and L-dopa 4′-monophosphate blood levels after administration of the combination of 4′-monophosphate prodrugs at a 4:1 ratio. […] Steady state concentration of ˜1 μg/mL was maintained over the infusion period for carbidopa. […] FIG. 9 provides a time-concentration profile for carbidopa and carbidopa 4′-monophosphate blood levels after administration of the combination of 4′-monophosphate prodrugs at a 4:1 ratio.

[20] = In vitro bioconversion study, liver S9 fraction (mini-pig); format: in vitro ADME; conditions: mini-pig liver S9 fraction 1 mg/mL
[21] = In vitro bioconversion study, kidney S9 fraction (rat); format: in vitro ADME; conditions: rat kidney S9 fraction 1 mg/mL

For `N[C@@H](Cc1ccc(O)c(OP(=O)(O)O)c1)C(=O)O` [L-dopa 3′-phosphate], the “L-Dopa or Carbidopa Formation” value [1] was “Yes”, the half-life at 2.5 ug/mL [1] was 14.8 h and the “L-Dopa or Carbidopa Formation” value [2] was “Yes”. For the same compound, the half-life at 2.5 ug/mL [2] was 12.3 h, the “stability and L-dopa or carbidopa formation” value [3] was “stable without formation of L-dopa or carbidopa observed” and the “L-Dopa or Carbidopa Formation” value [4] was “Yes”. For the same compound, the half-life at 2.5 ug/mL [4] was 0.467 h, the “L-Dopa or Carbidopa Formation” value [5] was “Yes” and the half-life at 2.5 ug/mL [5] was 11.2 h. The solubility ([6]; thermodynamic from solid, ambient, pH 7.0, crystalline, read-out: Solubility) was over 161 mg/mL, the “L-Dopa or Carbidopa Formation” value [7] was “Yes” and the half-life at 2.5 ug/mL [7] was 8.8 min. For the same compound, the “Estimated Conversion % (Based on L-dopa AUC)” value (shortened to “Estimated Conversion %”) ([8]; IV) was 66%, the “Estimated Conversion %” value ([8]; SC) was 96% and the “% Remaining After One Day” value [9] was over 99%. The “L-Dopa or Carbidopa Formation” value [10] was “Yes” and the half-life at 2.5 ug/mL [10] was 0.343 h.
In the case of `N[C@@H](Cc1ccc(OP(=O)(O)O)c(O)c1)C(=O)O` [L-dopa 4′-phosphate, (S)-2-amino-3-(3-hydroxy-4-(phosphonooxy)phenyl)propanoic acid], the “stability and L-dopa or carbidopa formation” value [11] is reported as “stable without formation of L-dopa or carbidopa observed”, the “stability and L-dopa or carbidopa formation” value [12] is reported as “stable without formation of L-dopa or carbidopa observed” and the Css of levodopa ([13]; human, one 20-mL vial of dose solution per day delivering >6000 mg per day, assuming linear human pharmacokinetics) is reported as over 5000 ng/mL. For the same compound, the “SC F Value” ([13]; projected human bioavailability after subcutaneous dosing) was 0.75, the “Bioconversion ratio Value” ([13]; projected human, prodrug to levodopa or carbidopa, mean bioconversion ratios observed in preclinical animals) was 0.9 and the “L-Dopa or Carbidopa Formation” value [1] was “Yes”. The half-life at 2.5 ug/mL [1] was 7.07 h, the “stability and L-dopa or carbidopa formation” value [14] was “stable without formation of L-dopa or carbidopa observed” and the “L-Dopa or Carbidopa Formation” value ([15]; rat intestinal S9 fraction) was “Yes”. For the same compound, the half-life at 2.5 ug/mL ([15]; rat intestinal S9 fraction 1 mg/mL) was 2.63 h, the “L-Dopa or Carbidopa Formation” value [2] was “Yes” and the half-life at 2.5 ug/mL [2] was 16.5 h. The “L-Dopa or Carbidopa Formation” value ([16]; human intestinal S9 fraction) was “Yes”, the half-life at 2.5 ug/mL ([16]; human intestinal S9 fraction 1 mg/mL) was 0.572 h and the “Exposure of the remaining L-dopa 4′-monophosphate, % of the levodopa exposure” value [17] was about 10%. The “% Remaining After 7 Days” value ([18]; Nitrogen Purged) was over 99%, the “% Remaining After 7 Days” value ([18]; Non-Purged) was over 99% and the “L-Dopa or Carbidopa Formation” value [4] was “Yes”. The half-life at 2.5 ug/mL [4] was 0.515 h, the “Exposure of the remaining L-dopa 4′-monophosphate, % of levodopa” value [19] was about 22% and the “L-Dopa or Carbidopa Formation” value [5] was “Yes”. For the same compound, the half-life at 2.5 ug/mL [5] was 9.87 h, the “solubility compared to L-dopa and carbidopa” value ([6]; FIG. 1, pH of 7.4) was “increased solubility” and the solubility ([6]; thermodynamic from solid, ambient, pH 7.4, L-dopa 4′-phosphate crystalline, carbidopa 4′-phosphate amorphous, read-out: Solubility) was over 400 mg/mL. For the same compound, the solubility ([6]; can reach as high as, read-out: aqueous solubility) was over 300 mg/mL, the “stability and L-dopa or carbidopa formation” value [20] was “stable without formation of L-dopa or carbidopa observed” and the “L-Dopa or Carbidopa Formation” value [7] was “Yes”. The half-life at 2.5 ug/mL [7] was 8.8 min, the “stability and L-dopa or carbidopa formation” value [21] was “stable without formation of L-dopa or carbidopa observed” and the “Estimated Conversion %” value ([8]; IV) was over 100%. For the same compound, the “Estimated Conversion %” value ([8]; SC) was over 100%, the “% Remaining After One Day” value [9] was over 99% and the “L-Dopa or Carbidopa Formation” value [10] was “Yes”. For the same compound, the half-life at 2.5 ug/mL [10] was 0.25 h.
Compound `N[C@@H](Cc1ccc(O)c(O)c1)C(=O)O` [L-dopa, L-3,4-dihydroxyphenylalanine, reference compound] has a solubility ([6]; thermodynamic from solid, ambient, pH 4-7, crystalline (carbidopa: crystalline monohydrate), read-out: Solubility) of under 6 mg/mL, an AUC ([8]; IV) of 1170 ng·h/mL and an AUC ([8]; SC) of 669 ng·h/mL.
